In paper PMC4336329 (PLoS ONE, 2015):
Screen size: about 310,000 compounds; about 2,200 (0.71%) showed an effect of 50% or more. Effects have a minus sign here. Some of the results follow.

The compounds below were run against human ether-à-go-go-related gene (hERG) potassium channel (human, UniProt Q12809) (assay: primary screen, population patch clamp on CHO cells stably expressing hERG).
Chain of human ether-à-go-go-related gene (hERG) potassium channel (Q12809 whole entry, looked up): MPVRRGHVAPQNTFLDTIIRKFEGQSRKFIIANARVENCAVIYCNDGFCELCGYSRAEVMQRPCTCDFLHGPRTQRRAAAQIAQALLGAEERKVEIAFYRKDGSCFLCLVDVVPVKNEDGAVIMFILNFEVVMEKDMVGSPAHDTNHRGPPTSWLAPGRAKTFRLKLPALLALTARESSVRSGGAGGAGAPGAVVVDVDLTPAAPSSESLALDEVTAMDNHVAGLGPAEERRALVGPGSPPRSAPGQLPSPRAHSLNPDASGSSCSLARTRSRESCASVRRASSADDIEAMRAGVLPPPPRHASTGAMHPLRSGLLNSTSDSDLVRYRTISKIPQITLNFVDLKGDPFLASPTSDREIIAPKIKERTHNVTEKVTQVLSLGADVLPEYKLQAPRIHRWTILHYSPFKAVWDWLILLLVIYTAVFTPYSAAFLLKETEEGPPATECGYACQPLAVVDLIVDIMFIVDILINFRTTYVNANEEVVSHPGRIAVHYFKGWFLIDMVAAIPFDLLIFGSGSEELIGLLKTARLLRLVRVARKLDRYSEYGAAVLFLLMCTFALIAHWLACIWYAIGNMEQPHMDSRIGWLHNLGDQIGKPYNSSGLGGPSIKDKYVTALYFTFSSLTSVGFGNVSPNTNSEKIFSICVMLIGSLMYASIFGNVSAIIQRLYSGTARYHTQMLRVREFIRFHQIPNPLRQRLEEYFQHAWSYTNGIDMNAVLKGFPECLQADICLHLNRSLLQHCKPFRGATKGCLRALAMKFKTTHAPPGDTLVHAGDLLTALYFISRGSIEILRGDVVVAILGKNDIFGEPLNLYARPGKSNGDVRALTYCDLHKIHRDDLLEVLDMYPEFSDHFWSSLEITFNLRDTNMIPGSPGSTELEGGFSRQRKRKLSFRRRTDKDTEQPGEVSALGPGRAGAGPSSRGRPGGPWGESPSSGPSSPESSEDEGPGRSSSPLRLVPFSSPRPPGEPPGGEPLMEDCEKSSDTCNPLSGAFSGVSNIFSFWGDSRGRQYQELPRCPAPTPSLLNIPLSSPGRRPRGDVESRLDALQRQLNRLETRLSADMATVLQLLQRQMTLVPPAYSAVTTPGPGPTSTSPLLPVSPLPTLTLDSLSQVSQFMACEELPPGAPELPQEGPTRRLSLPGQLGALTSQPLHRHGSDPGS

Row | Structure (SMILES) | hERG current change (%, negative = inhibition) at 1uM
1 | CCCCSc1c(C)c2cc3c(cc2[nH]c1=O)OCO3 | 16%
2 | CCC(C)Nc1nc(SC(C(C)=O)C(C)=O)nc(N(C)C)n1 (centres unmarked) | -6%
3 | COc1ccc(Cn2c(O)c(/C=N/NC(=O)c3ccccc3O)c(=O)[nH]c2=O)cc1 | 1.81%
4 | CC1CCN(CCCn2c(SCC(=O)NC3CCCC3)nc3ccccc3c2=O)CC1 | -64.8%
5 | CC(Cc1ccccc1)[n+]1cc(/N=C(\[O-])N(C)C)on1.Cl (centres unmarked) | 3.62%
6 | Cc1nn(C)c(Cl)c1CN1CCN(CC(C)C)C(CCO)C1 (centres unmarked) | 4.79%
7 | Cc1csc(NC(=O)CSc2nc3ccccc3s2)n1 | 3.48%
8 | O=c1c2c([N+](=O)[O-])cc([N+](=O)[O-])cc2sn1Cc1ccccc1 | 18.8%
9 | CCc1cccc(C)c1NC(=O)CN(C)S(=O)(=O)c1ccc(-c2ccc(=O)[nH]n2)s1 | -1.3%
10 | CC(=O)Nc1ccc2nc(NC(=O)c3cccs3)sc2c1 | 12.8%
11 | Cc1ccnc(Sc2ccc([N+](=O)[O-])cc2[N+](=O)[O-])n1 | 11.5%
12 | CCOCCCNCC(=O)NCC1CCCCC1.O=C(O)C(=O)O | 22.2%
13 | c1ccc(CN2CCC(Nc3nc(-c4cccs4)nc4ccccc34)CC2)cc1 | 10.5%
14 | COc1cccc(CNC(=O)CCNC(=O)Cn2ccc3ccccc3c2=O)c1 | 8.94%
15 | COc1ccc(C(=O)C2CCCN(Cc3c(F)ccc(F)c3F)C2)c(OC)c1 (centres unmarked) | 9.24%
16 | C/C(CS(=O)(=O)c1ccc(Cl)cc1)=N/NC(N)=S | -5.64%
17 | Cc1nc(NC(=O)/C=C/c2ccccc2)sc1C(=O)Nc1ccccc1Cl | 16.3%
18 | COc1ccc(C(CC(=O)N2CCC3(CC2)OCCO3)NS(=O)(=O)c2ccc(C)cc2)cc1 (centres unmarked) | 6.54%
19 | CCCCNC(=O)NS(=O)(=O)c1ccc(NS(=O)(=O)c2ccccc2)cc1 | 14.2%
20 | NC(=O)c1ccc(NC(=O)CN2CCN(C(=O)c3ccco3)CC2)cc1 | -1.81%
21 | COC(=O)COc1ccc2oc(=O)cc(-c3cc4ccccc4o3)c2c1 | 11.2%
22 | COc1ccc(CN(C)C(=O)CCc2ccc(S(=O)(=O)N3CCCCCC3)cc2)c(OC)c1 | -3.94%

Row | Structure (SMILES) | hERG current change (%, negative = inhibition) at 1uM
23 | COC(=O)C1=C(c2cccc(OCc3ccccc3)c2)C[C@@H]2CC[C@H]1N2C(=O)NCc1ccc(OC)cc1 | 14.3%
24 | Cc1cc2c(=O)n(CC(=O)N3CCN(c4ccc(F)cc4)CC3)cnc2s1 | 5.2%
25 | COc1ccc(NCC(=O)Nc2cc(S(=O)(=O)N3CCOCC3)ccc2N2CCOCC2)c(OC)c1 | -3.27%
26 | N#Cc1c2c(c(Nc3ccc(O)cc3)n3c1nc1ccccc13)CCC2 | 11.7%
27 | CC(=O)Nc1ccc(C(=O)OCC(=O)Nc2ccccc2F)cc1 | 6.13%
28 | Nc1ccc(C(=O)c2cccs2)cc1[N+](=O)[O-] | 15.8%
29 | CCCCC(CC)COCCCN=Cc1c(O)[nH]c(=S)[nH]c1=O (centres unmarked) | 6.19%
30 | CCOC(=O)c1cccc(NS(=O)(=O)c2c(C)[nH]c(C)c2C(=O)N2CCCC2)c1 | 16.6%
31 | O=C(C1CCCO1)N1CCN(C(=S)Nc2cc(F)cc(F)c2)CC1 (centres unmarked) | 11.4%
32 | CCOC(=O)C(=O)NC(C)c1ccccc1 (centres unmarked) | 10.1%
33 | CC(C)c1nnc(NC(=O)c2sc3ccccc3c2Cl)s1 | 9.11%
34 | O=C(COc1ccccc1F)Nc1ccc(S(=O)(=O)NCc2ccco2)cc1 | 7.73%
35 | CCc1nccn1S(=O)(=O)c1cccc([N+](=O)[O-])c1 | 11.9%
36 | Cc1c(CCOC(=O)c2cccc([N+](=O)[O-])c2)sc[n+]1CC(=O)c1ccccc1.[Br-] | 6.58%
37 | O=C(O)CCSCCCN1C(=O)c2cccc3cccc(c23)C1=O | 19.6%
38 | CCOC(=O)c1c(NC(=O)CSc2nnc(C)c(=O)[nH]2)sc(C)c1C | 9.28%
39 | Cc1cc2n(n1)SC(Nc1cc(Cl)ccc1Cl)N2 (centres unmarked) | 7.4%
40 | Cc1c(Br)c([N+](=O)[O-])nn1CC(=O)Nc1nccs1 | 9.21%
41 | CC(=O)c1cc(C#N)c(SCc2ccccn2)nc1C | 5.89%
42 | O=C(Cn1cnc2c(nnn2Cc2ccc(F)cc2)c1=O)NCC1CCCO1 (centres unmarked) | 4.73%
43 | CCC(C)NC(=O)C1c2ccccc2Oc2ccccc21 (centres unmarked) | 6.03%
44 | Cc1cc(C)c(S(=O)(=O)c2cc(F)ccc2C)c(=O)[nH]1 | 16.1%
